This passage reports binding signal results from paper PMC9911399, “Two distinct binding modes provide the RNA-binding protein RbFox with extraordinary sequence specificity”.

Where a chain is given by its changes, count along the chain named. The list shows a part of the results.

T1: RBFOX1 RRM RbFoxmut (Fox-RRM*) (Homo sapiens, UniProt Q9NWB1 109-208, R118D;E147R;N151S;E152T)
T1 sequence: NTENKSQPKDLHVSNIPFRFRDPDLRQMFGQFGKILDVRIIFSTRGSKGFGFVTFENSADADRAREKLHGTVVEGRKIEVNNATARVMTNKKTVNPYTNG

B1: CAUUUGC (DNA:RNA)
RNA: GGGAGACCGGAAUUCAGAUUGUCCCAUUUGCUUAAAUCCCGUCGUAGCCACCA
DNA 1: CAATCTGAATTCCGGTCTCCC
DNA 2: TGGTGGCTACGACGGGATT
B2: CUGUCCA (DNA:RNA)
RNA: B1 RNA with A26U, U27G, U29C, G30C, C31A
DNA 1: CAATCTGAATTCCGGTCTCCC
DNA 2: TGGTGGCTACGACGGGATT
B3: UGCAGUA (DNA:RNA)
RNA: GGGAGACCGGAAUUCAGAUUGUCCUGCAGUAUUAAAUCCCGUCGUAGCCACCA
DNA 1: CAATCTGAATTCCGGTCTCCC
DNA 2: TGGTGGCTACGACGGGATT
B4: GUGGGAA (DNA:RNA)
RNA: B3 RNA with U25G, G26U, C27G, A28G, U30A
DNA 1: CAATCTGAATTCCGGTCTCCC
DNA 2: TGGTGGCTACGACGGGATT
B5: CCAUGUC (DNA:RNA)
RNA: B1 RNA with A26C, U27A, U29G, G30U
DNA 1: CAATCTGAATTCCGGTCTCCC
DNA 2: TGGTGGCTACGACGGGATT
B6: GGACCCU (DNA:RNA)
RNA: B3 RNA with U25G, C27A, A28C, G29C, U30C, A31U
DNA 1: CAATCTGAATTCCGGTCTCCC
DNA 2: TGGTGGCTACGACGGGATT
B7: AUGCAUU (DNA:RNA)
RNA: B3 RNA with U25A, G26U, C27G, A28C, G29A, A31U
DNA 1: CAATCTGAATTCCGGTCTCCC
DNA 2: TGGTGGCTACGACGGGATT
B8: UUACGGG (DNA:RNA)
RNA: B3 RNA with G26U, C27A, A28C, U30G, A31G
DNA 1: CAATCTGAATTCCGGTCTCCC
DNA 2: TGGTGGCTACGACGGGATT
B9: AUCUCCU (DNA:RNA)
RNA: B1 RNA with C25A, A26U, U27C, U29C, G30C, C31U
DNA 1: CAATCTGAATTCCGGTCTCCC
DNA 2: TGGTGGCTACGACGGGATT
B10: AGGCUAA (DNA:RNA)
RNA: B3 RNA with U25A, C27G, A28C, G29U, U30A
DNA 1: CAATCTGAATTCCGGTCTCCC
DNA 2: TGGTGGCTACGACGGGATT
B11: GAGUUUU (DNA:RNA)
RNA: B1 RNA with C25G, U27G, G30U, C31U
DNA 1: CAATCTGAATTCCGGTCTCCC
DNA 2: TGGTGGCTACGACGGGATT
B12: AUCGAAG (DNA:RNA)
RNA: B3 RNA with U25A, G26U, A28G, G29A, U30A, A31G
DNA 1: CAATCTGAATTCCGGTCTCCC
DNA 2: TGGTGGCTACGACGGGATT
B13: UAGCUGA (DNA:RNA)
RNA: B1 RNA with C25U, U27G, U28C, C31A
DNA 1: CAATCTGAATTCCGGTCTCCC
DNA 2: TGGTGGCTACGACGGGATT
B14: GGAGACU (DNA:RNA)
RNA: B3 RNA with U25G, C27A, A28G, G29A, U30C, A31U
DNA 1: CAATCTGAATTCCGGTCTCCC
DNA 2: TGGTGGCTACGACGGGATT
B15: CGUUCGG (DNA:RNA)
RNA: B1 RNA with A26G, U29C, C31G
DNA 1: CAATCTGAATTCCGGTCTCCC
DNA 2: TGGTGGCTACGACGGGATT
B16: GUGGGAU (DNA:RNA)
RNA: B3 RNA with U25G, G26U, C27G, A28G, U30A, A31U
DNA 1: CAATCTGAATTCCGGTCTCCC
DNA 2: TGGTGGCTACGACGGGATT
B17: UCUUUUC (DNA:RNA)
RNA: B1 RNA with C25U, A26C, G30U
DNA 1: CAATCTGAATTCCGGTCTCCC
DNA 2: TGGTGGCTACGACGGGATT
B18: UAAAGAG (DNA:RNA)
RNA: B3 RNA with G26A, C27A, U30A, A31G
DNA 1: CAATCTGAATTCCGGTCTCCC
DNA 2: TGGTGGCTACGACGGGATT
B19: UUAUACA (DNA:RNA)
RNA: B3 RNA with G26U, C27A, A28U, G29A, U30C
DNA 1: CAATCTGAATTCCGGTCTCCC
DNA 2: TGGTGGCTACGACGGGATT
B20: CCAGUUU (DNA:RNA)
RNA: B1 RNA with A26C, U27A, U28G, G30U, C31U
DNA 1: CAATCTGAATTCCGGTCTCCC
DNA 2: TGGTGGCTACGACGGGATT
B21: AAAGCAA (DNA:RNA)
RNA: B1 RNA with C25A, U27A, U28G, U29C, G30A, C31A
DNA 1: CAATCTGAATTCCGGTCTCCC
DNA 2: TGGTGGCTACGACGGGATT
B22: GUAUUUU (DNA:RNA)
RNA: B1 RNA with C25G, A26U, U27A, G30U, C31U
DNA 1: CAATCTGAATTCCGGTCTCCC
DNA 2: TGGTGGCTACGACGGGATT
B23: GUUUCUG (DNA:RNA)
RNA: B1 RNA with C25G, A26U, U29C, G30U, C31G
DNA 1: CAATCTGAATTCCGGTCTCCC
DNA 2: TGGTGGCTACGACGGGATT
B24: UUGAUAU (DNA:RNA)
RNA: B3 RNA with G26U, C27G, G29U, U30A, A31U
DNA 1: CAATCTGAATTCCGGTCTCCC
DNA 2: TGGTGGCTACGACGGGATT
B25: GGCGCAC (DNA:RNA)
RNA: B3 RNA with U25G, A28G, G29C, U30A, A31C
DNA 1: CAATCTGAATTCCGGTCTCCC
DNA 2: TGGTGGCTACGACGGGATT
B26: ACCGCGG (DNA:RNA)
RNA: B1 RNA with C25A, A26C, U27C, U28G, U29C, C31G
DNA 1: CAATCTGAATTCCGGTCTCCC
DNA 2: TGGTGGCTACGACGGGATT
B27: GUAUCGU (DNA:RNA)
RNA: B1 RNA with C25G, A26U, U27A, U29C, C31U
DNA 1: CAATCTGAATTCCGGTCTCCC
DNA 2: TGGTGGCTACGACGGGATT
B28: GCCUUAA (DNA:RNA)
RNA: B1 RNA with C25G, A26C, U27C, G30A, C31A
DNA 1: CAATCTGAATTCCGGTCTCCC
DNA 2: TGGTGGCTACGACGGGATT
B29: UGGCGUA (DNA:RNA)
RNA: B3 RNA with C27G, A28C
DNA 1: CAATCTGAATTCCGGTCTCCC
DNA 2: TGGTGGCTACGACGGGATT
B30: UGUUUGG (DNA:RNA)
RNA: B1 RNA with C25U, A26G, C31G
DNA 1: CAATCTGAATTCCGGTCTCCC
DNA 2: TGGTGGCTACGACGGGATT
B31: UCAAAUG (DNA:RNA)
RNA: B3 RNA with G26C, C27A, G29A, A31G
DNA 1: CAATCTGAATTCCGGTCTCCC
DNA 2: TGGTGGCTACGACGGGATT

This test has as its target T1, RBFOX1 RRM RbFoxmut (Fox-RRM*). Kind of test: EMSA; HiTS-Eq, 1 nM pool, 10 min; buffer printed only for the single-RNA assays: 10 mM Tris pH 7.5, 150 mM NaCl, 3.4 mM EDTA, 0.001% NP-40, 30 C. Particulars: tags: His6 N-terminal (pET28a); label: 5' 32P. Summed up: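 Purified RbFox RRM (wild type or mutant) was equilibrated for 10 min in 50 µL with 1 nM of a 5′-radiolabelled pool of RNA with 7 randomized nucleotides, its flanks annealed to DNA oligonucleotides, across increasing protein concentrations. Free RNA was separated by 8% native PAGE, excised, reverse-transcribed, PCR-barcoded and sequenced on an Illumina HiSeq 2500. Relative association constants came from read-count changes of each variant against the control reaction, normalised to the cognate motif.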
B1: the binding signal is 0.133 KA relative to UGCAUGU.

For the molecule B2, the binding signal is 0.128 KA relative to UGCAUGU.

As for B3, the binding signal was 0.152 KA relative to UGCAUGU.

Take B4: the binding signal was 0.151 KA relative to UGCAUGU.

Consider B5, for which the binding signal was 0.17 KA relative to UGCAUGU.

Turning to B6, the binding signal is 0.0554 KA relative to UGCAUGU.

Consider B7, for which the binding signal is 0.124 KA relative to UGCAUGU.

B8: the binding signal was 0.0998 KA relative to UGCAUGU.

With B9, the binding signal was 0.0809 KA relative to UGCAUGU.

Take B10: the binding signal was 0.0915 KA relative to UGCAUGU.

Take B11: the binding signal is 0.0926 KA relative to UGCAUGU.

Turning to B12, the binding signal was 0.137 KA relative to UGCAUGU.

As for B13, the binding signal is 0.0895 KA relative to UGCAUGU.

With B14, the binding signal was 0.0746 KA relative to UGCAUGU.

Consider B15, for which the binding signal is 0.115 KA relative to UGCAUGU.

For the molecule B16, the binding signal is 0.103 KA relative to UGCAUGU.

On to B17, for which the binding signal is 0.0759 KA relative to UGCAUGU.

Take B18: the binding signal is 0.0748 KA relative to UGCAUGU.

B19: the binding signal is 0.0696 KA relative to UGCAUGU.

On to B20, for which the binding signal was 0.0755 KA relative to UGCAUGU.

For B21, the binding signal was 0.0635 KA relative to UGCAUGU.

On to B22, for which the binding signal is 0.118 KA relative to UGCAUGU.

For B23, the binding signal is 0.125 KA relative to UGCAUGU.

For B24, the binding signal was 0.114 KA relative to UGCAUGU.

As for B25, the binding signal is 0.0609 KA relative to UGCAUGU.

B26: the binding signal is 0.0849 KA relative to UGCAUGU.

Regarding B27, the binding signal is 0.461 KA relative to UGCAUGU.

As for B28, the binding signal is 0.0981 KA relative to UGCAUGU.

In the case of B29, the binding signal was 0.155 KA relative to UGCAUGU.

As for B30, the binding signal is 0.302 KA relative to UGCAUGU.

Take B31: the binding signal was 0.0986 KA relative to UGCAUGU.
